Data reported in PubChem BioAssay AID485297 (National Center for Advancing Translational Sciences (NCATS), 2010).
Out of some 320,000 compounds screened, about 9,100 (2.8%) were called active. This list was built around the results that the source calls inconclusive (neither active nor inactive); the mix of calls is not that of the screen. The call rests on the fitted dose curve; in most records, active means well fitted activation curve with a large enough effect; inconclusive means small, poorly fitted or top-dose-only effect; inactive means no such curve, though single readings can be large or run the other way. Potencies of inconclusive entries are doubtful fits and often do not repeat.

Assay: qHTS Assay for Rab9 Promoter Activators; further: nearly all actives have a fitted effect of over 60% in size
Details: Huh7 Rab9 promoter-luciferase reporter, luminescence, 24 h; series mostly up to 9.22 µM
Procedure, shortened: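 Luminescence from Amplite-detected luciferase (10 minutes, ambient) reports Rab9 promoter activation. Before that, stable Rab9-luciferase Huh7 cells (1500/well, reduced-serum OP-MEM I plus 10% FBS) were exposed to compound for 24 hours at 37C.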
Potency means the concentration at half of the fitted maximal effect; tags describe the fitted curve by direction and shape.

Potency, active:
N/C(=N\OC(=O)c1ccccc1F)c1cccc([N+](=O)[O-])c1 2.82 µM, C(=N\NCc1ccccc1)/c1ccc2ncccc2c1 1.58 µM, O=C1CCCC/C1=C/Nc1ccc2c(c1)OCO2 3.55 µM, O=C(Nc1nc2c(F)c(F)c(F)cc2s1)c1ccco1 2.51 µM, Brc1ccc(-c2cn3ccccc3n2)cc1 0.398 µM, O=C(Nc1nc2cc3c(cc2s1)OCCO3)c1ccc([N+](=O)[O-])o1 1 µM, O=C(Nc1ncccc1O)c1cc2ccccc2o1 0.631 µM, O=[N+]([O-])c1cccc(-c2ccc(C(=S)N3CCOCC3)o2)c1 1.12 µM, CC(=O)Nc1ccc(/C=C/C(=O)c2ccccc2)cc1 3.98 µM, CN(/N=C/c1ccc2c(c1)OCO2)c1ccccc1 2.82 µM, Cn1cc(Br)c(C(=O)Nc2ncc(Br)s2)n1 2.51 µM, COc1ccc(OC(=O)NCCc2ccccc2)cc1 3.55 µM

Potency, inconclusive:
CC(C)Sc1nnc(NC(=O)c2ccco2)s1 3.55 µM [activator, single point], Cc1c(/C=C/C(=O)c2ccc(C(C)C)cc2)cnn1C 3.55 µM [activator, single point], CN(C)c1ccc(/C=N/N=C2/NC(=O)/C(=C/c3ccc([N+](=O)[O-])cc3)S2)cc1 0.562 µM [activator, full curve], CC1(C)Cc2nc3sc4c(SCC(=O)NCc5ccco5)ncnc4c3cc2CO1 0.501 µM [activator, full curve, poor fit], COc1ccc2c(c1)sc1nc(-c3ccccc3)cn12 0.316 µM [activator, partial curve], COc1ccc(NC2CCCN(C(=O)CN3CCOC3=O)C2)cc1 (centres undefined) 3.16 µM [activator, partial curve], O=C(Nc1ccc(F)cc1)c1csc(Cc2ccccc2)n1 2.51 µM [activator, partial curve], CSc1ccc(-c2cc(=O)c3ccccc3o2)cc1 3.98 µM [activator, single point], Cc1cc(NC(=O)C(C)C)n(-c2nc3ccccc3s2)n1 2.82 µM [activator, partial curve], O=C1C(C=Nc2ccccc2O)=C(O)c2ccccc21 6.31 µM [activator, single point], CC1CCC2(CC1)Nc1ccccc1C(=O)N2c1ccccc1 (centres undefined) 5.62 µM [activator, single point], COc1ccc(OCCCn2cc(/C=C3/C(=N)N4C=C(C)SC4=NC3=O)c3ccccc32)cc1 3.98 µM [activator, single point], CCC(Sc1nc2ccccc2c(=O)[nH]1)C(=O)Nc1ccc(C(C)=O)cc1 (centres undefined) 3.55 µM [activator, partial curve], COc1ccc(C(=O)c2coc3c2C(=O)C(=O)c2ccccc2-3)cc1 5.62 µM [activator, single point], NC(N)=N/N=C/c1ccc(OCc2ccc(Cl)cc2)cc1 2.82 µM [activator, partial curve], O=C(Nc1ncc([N+](=O)[O-])s1)C1CCN(S(=O)(=O)c2cnc[nH]2)CC1 5.62 µM [activator, single point], COC(=O)/C(=C1/Oc2cc3c(cc2S1)OCO3)C(F)(F)F 5.62 µM [activator, single point], COC(=O)c1ccc(C2OCC(C)(C)CO2)cc1 5.62 µM [activator, single point], O=C(Nc1ccccc1O)c1ccc(Cl)cc1 3.55 µM [activator, partial curve], CC(C)c1nnc(NC(=O)CCC2CCCCC2)s1 5.62 µM [activator, single point], CCCN1CCC(=O)N([C@H](CSc2ccc(OC)cc2)CC(C)C)CC1 5.62 µM [activator, single point], Fc1ccc(N=C2NN=C(c3cc(F)ccc3F)CS2)cc1 5.62 µM [activator, single point], O=C(N/N=C/c1ccccc1Cl)c1n[nH]c2c1CCCC2 0.0891 µM [activator, full curve, poor fit], CCCCCCCCC/C(=N\O)c1ccccn1 3.55 µM [activator, single point], O=C(Cn1nnc2ccccc21)c1ccc(Br)cc1 2.82 µM [activator, partial curve], NC(=O)c1ccc(NC(=O)Nc2ccc3c(c2)OCO3)cc1 3.55 µM [activator, single point], O=C(NCCc1ccccc1)c1ccc(NS(=O)(=O)c2ccc3[nH]c(=O)[nH]c3c2)cc1 2.51 µM [activator, partial curve], Oc1ccc2ccccc2c1C=Nc1ccccc1-c1nc2ccccc2[nH]1 3.16 µM [activator, single point], CS(=O)(=O)c1cccc(-c2csc(N3CCC(C(N)=O)CC3)n2)c1 1.26 µM [activator, single point], COC(=O)c1ccccc1C(=O)N1CCCC(CCC(=O)NCc2ccc(F)c(F)c2)C1 (centres undefined) 3.55 µM [activator, single point], O=C(NCCc1cscn1)C1CCC(=O)N(Cc2ccc(Cl)cc2)C1 (centres undefined) 4.47 µM [activator, partial curve], Cc1ccc(/C=N/NC(=O)c2ccoc2C)o1 2.82 µM [activator, partial curve], c1ccc(CCc2nc3ccccc3[nH]2)cc1 3.55 µM [activator, single point], O=C(O)c1cccc2c1C(=O)c1ccc(-c3ccc(Cl)c(C(F)(F)F)c3)cc1S2(=O)=O 2.82 µM [activator, partial curve], O=C(Nc1ccc([N+](=O)[O-])cc1)C(=O)Nc1cccc(C(=O)O)c1 1.26 µM [activator, partial curve, poor fit], CSc1nsc(SCC(=O)Nc2ccc(OC(C)=O)cc2)n1 5.01 µM [activator, single point], Cc1c(C(=O)NC2CCCCC2)oc2ccccc12 5.62 µM [activator, single point], CCc1nc2ccccc2n1Cc1ccc(F)cc1 5.62 µM [activator, single point], Cc1ccc2nc(SC(C)C(=O)N3CCCC3)[nH]c2c1 (centres undefined) 5.62 µM [activator, single point], COc1ccc(C)cc1NC(=O)c1cc2c(s1)CCC2 3.98 µM [activator, single point], CCOCCn1c(COc2ccc(C)cc2)nc2ccccc21 5.62 µM [activator, single point], CCCCN(CC)C(=O)c1cc2cc3ccc(Cl)cc3nc2o1 1.78 µM [activator, partial curve], CCN(CC)c1ccc(C2Nc3cccc4cccc(c34)N2)c(O)c1 5.62 µM [activator, single point], CC1(C)C(c2ccccn2)=[N+]([O-])C(C)(C)N1O 6.31 µM [activator, single point], O=C(Nc1ccc(O)cc1)c1ccc(NC(=O)c2cccs2)cc1 3.16 µM [activator, partial curve]

Potency, inactive:
COc1ccc2oc(=O)c(C(=O)N3CCN(C(=O)c4ccccc4)CC3)cc2c1, COc1ccc(N2CCN(CCCn3c(=S)[nH]c4ncccc4c3=O)CC2)cc1, COc1ccc(-c2cc(C(=O)NCc3ccco3)c3ccccc3n2)c(OC)c1, CCOc1cccc(C(=O)NC(=S)Nc2cccnc2)c1, COc1ccc(/C=N/NC(=O)c2ccc3nc[nH]c3c2)cc1OC, CC(C)(CC(=O)OCC(=O)Nc1ccccc1F)CC1=NS(=O)(=O)c2ccccc2N1, O=C(Cn1cnc2c(oc3nc4c(cc32)CCCC4)c1=O)Nc1ccccc1, COc1ccc(CNC(=O)CSc2nc(-c3ccccc3)cc(-c3cccs3)c2C#N)cc1, COc1ccc(C(=O)OCC(=O)NC2CC2)cc1[N+](=O)[O-], O=C1NC(=O)/C(=C/c2cc3c(cc2Br)OCO3)S1, CC(Oc1ccc2c(c1)oc(=O)c1ccccc12)C(=O)NCCN1CCOCC1 (centres undefined), Fc1ccc(NC(=S)NCc2ccccc2)cc1, CC(=O)Nc1ccc(/C=N/N2C(C)CCCC2C)cc1 (centres undefined), Cc1ccccc1C(=O)N1CCC(C(=O)OCc2ccccc2Cl)CC1, COC(=O)[C@@]12OC[C@]34[C@H]([C@@H](O)[C@@H]1O)[C@@]1(C)C(=O)C(O[C@@H]5OC(CO)[C@@H](O)[C@@H](O)[C@@H]5O)=C[C@@H](C)[C@@H]1C[C@H]3OC(=O)[C@H](OC(=O)/C=C(\C)C(C)(C)OC(C)=O)[C@@H]24 (some centres undefined), O=C(O)CCN1CCN(S(=O)(=O)c2ccc3ccccc3c2)CC1, Cc1nnc(C)n1/N=C/c1cccc([N+](=O)[O-])c1
